According to the RNAGym collection of RNA variant scans (doi:10.7554/elife.90254):
Read counts are not given, so values of variants with three or more changes are uncertain.

B1: LINE1-mini (parent)
chain: GGCAGAGCUCAACACAGCGUGGCAAAGUGGCUGUGGCUAGACUGCC

Variants of: B1
Experiment: self-cleavage, relative activity (ratio to wild type); higher = more cleavage; in vitro, sequencing; the parent is a self-cleaving ribozyme
A4G A41G U43C C45U showed a self-cleavage of 0.03.
In the case of C10U A11C A14C A26G U32A, the self-cleavage is reported as 0.02.
A6G A16C C31A G35C gave a self-cleavage of 0.01.
For G1C U28A G40C U43A, the self-cleavage was 0.01.
A6U G17A G19U showed a self-cleavage of 0.06.
Variant G33A G36C C42G has a self-cleavage of 0.03.
For C13G A14U G33U G35A, the self-cleavage was 0.01.
Work on C3G C10G C18A A25G C45A yielded a self-cleavage of 0.
G7U C13U G21C showed a self-cleavage of 0.05.
With A14U C18U A26C G30A the self-cleavage was 0.06.
In the case of G36U C37G A41U, the self-cleavage is reported as 0.04.
C13U C18A C45G showed a self-cleavage of 0.03.
Variant U9A G30U C45G has a self-cleavage of 0.77.
C8A C15U A26C G36U showed a self-cleavage of 0.59.
C31U C42G G44U gave a self-cleavage of 0.02.
With A14U U32C C45A the self-cleavage was 0.05.
For C15U U20A C31U C45A, the self-cleavage was 0.08.
A6U A25C G27U G33U A39U showed a self-cleavage of 0.07.
A24G G30C U32A gave a self-cleavage of 0.21.
With C23U A26U C45A the self-cleavage was 0.58.
In the case of G17C C18A G22U C31U G35A, the self-cleavage is reported as 0.01.
Variant C8A C18G C46U has a self-cleavage of 0.1.
For A6C C31A U34A G40C, the self-cleavage was 0.02.
Variant A4G A11G C15G U32G has a self-cleavage of 0.03.
G17A A24U A25U C37U showed a self-cleavage of 0.02.
In the case of G7U U34A C37A, the self-cleavage is reported as 0.02.
A4C G19A A24U U38C A39C gave a self-cleavage of 0.07.
For A16C G17C G19U G22U C31U, the self-cleavage was 0.01.
Variant G1C G2A A39U has a self-cleavage of 0.03.
For C15U G17C A24U C31G G40A G44U, the self-cleavage was 0.01.
Variant C8U U9A A12C C31A has a self-cleavage of 0.05.
G7C G17C A41U showed a self-cleavage of 0.11.
Variant A6G G19A G40A C42U has a self-cleavage of 0.01.
Variant A6G C15G G30U A41U has a self-cleavage of 0.02.
C3U A16G G35U C37A U43A G44A gave a self-cleavage of 0.02.
Work on G5C G7A C15A C23A G33C U38G C46G yielded a self-cleavage of 0.05.
Variant G27U G36A C42U has a self-cleavage of 0.07.
Variant A4C C23G C37G has a self-cleavage of 0.31.
A4C G17U G35U A41U showed a self-cleavage of 0.06.
Work on A4U A6G A16U yielded a self-cleavage of 0.26.
Work on G5U C13A G22U G33A A39C yielded a self-cleavage of 0.01.
With C18A G30C G35C A39G A41G the self-cleavage was 0.
With G1U G5C C13G C31A the self-cleavage was 0.05.
A4G C8G C18G C31A gave a self-cleavage of 0.09.
In the case of A6U C8A C10U G22C U28G, the self-cleavage is reported as 0.05.
For C3A G5C C10G G21U, the self-cleavage was 0.01.
With A4G A25G A26G the self-cleavage was 0.2.
G5C U20A G40C gave a self-cleavage of 0.03.
Variant C42A G44U C45U has a self-cleavage of 0.04.
C10U G29U C31U showed a self-cleavage of 0.18.
G2U G7A U9A A26C G33U C37U gave a self-cleavage of 0.05.
G1U A26U U43A showed a self-cleavage of 0.07.
Variant A4G G5U C8G G17A C23A C31G has a self-cleavage of 0.03.
In the case of G7A C10G A11C, the self-cleavage is reported as 0.01.
Variant A4U C8A U38G has a self-cleavage of 0.09.
In the case of U20A U32C A39C C42U, the self-cleavage is reported as 0.05.
In the case of G5U C10A G27A, the self-cleavage is reported as 0.01.
Variant G21U U38A C46U has a self-cleavage of 0.13.
With A12C G19C C31G the self-cleavage was 0.04.
Work on G19U C31U C46A yielded a self-cleavage of 0.39.
G2U C10U G33U G35A G44U showed a self-cleavage of 0.01.
In the case of C3G C8U C31G, the self-cleavage is reported as 0.96.
C10A G22A A25U gave a self-cleavage of 0.02.
With A11U A16C G35U C37A C42U the self-cleavage was 0.01.
In the case of G1C A6U C10A, the self-cleavage is reported as 0.
G21U C23G A41G gave a self-cleavage of 0.26.
Work on G2C A4G U9C G21U C31A G35A yielded a self-cleavage of 0.03.
C10G G17A A24U G40A showed a self-cleavage of 0.03.
Variant A6G C37A C42A has a self-cleavage of 0.03.
With C8A G27A A41G C45A the self-cleavage was 0.17.
With G5C G19U A24U U34C the self-cleavage was 0.01.
C23A G27U C37A showed a self-cleavage of 0.04.
In the case of C15U C23G C42G, the self-cleavage is reported as 0.02.
Variant C8A A16G G27C G44A has a self-cleavage of 0.16.
Work on C10A G19U C23U yielded a self-cleavage of 0.03.
Work on C8A A12U G17U A25U G29U C46U yielded a self-cleavage of 0.49.
With C15A A16C G22A the self-cleavage was 0.05.
G7U G21U C42U gave a self-cleavage of 0.15.
C37U U38C C46A showed a self-cleavage of 0.06.
Variant C10U A11G C23U G29C has a self-cleavage of 0.01.
G22A U34G U38C gave a self-cleavage of 0.66.
G5A G17U U20A A24G U34C A39U gave a self-cleavage of 0.01.
U9A A11G G17U A25U showed a self-cleavage of 0.01.
In the case of C23G A24G A41C, the self-cleavage is reported as 0.05.
For C13A G29U G36A C42A, the self-cleavage was 0.14.
A6C G7C C10G C23U gave a self-cleavage of 0.
Work on C8G G22U U34A yielded a self-cleavage of 0.13.
Work on C3G G17C G22U G33U U38C G40C yielded a self-cleavage of 0.01.
With A4G C15G G35U C45A the self-cleavage was 0.09.
C10U U20C A39U showed a self-cleavage of 0.17.
In the case of C23G G29U C31A U34C, the self-cleavage is reported as 0.02.
Variant C3A G17C G21C A26C G35A has a self-cleavage of 0.12.
With C13A G33A G35U the self-cleavage was 0.01.
Work on C3G A14C G30U yielded a self-cleavage of 0.12.
Variant A11U A25U G30A C31A has a self-cleavage of 0.03.
With G1A C15A C23G G29C G36A C45U the self-cleavage was 0.01.
Variant A11G C23A G33C G40U C45U has a self-cleavage of 0.
G2C A11C A16C showed a self-cleavage of 0.
Variant G17A C18G A39C has a self-cleavage of 0.
Work on A16U G30C C42G yielded a self-cleavage of 0.02.
Work on G2A A11C G19C C23G A25C G27U U32A G33A yielded a self-cleavage of 0.03.
For A6C G27A U32G G35U, the self-cleavage was 0.05.
For C31G U32G U38G C42U, the self-cleavage was 0.06.
C3U G5C G19C C42A showed a self-cleavage of 0.05.
For C15U G22U G40A A41G, the self-cleavage was 0.2.
Variant G2A A12C C18A has a self-cleavage of 0.07.
Work on U9C G19U A26U G30U yielded a self-cleavage of 0.01.
In the case of A14U G19U C37A G40C C46U, the self-cleavage is reported as 0.
In the case of G2U G17A G35A G36C, the self-cleavage is reported as 0.05.
A14G G17U G21U G22C G35C gave a self-cleavage of 0.02.
For G2U A4C A6U G21A G29U C45G, the self-cleavage was 0.16.
G7C C31U G35C showed a self-cleavage of 0.07.
Work on A16U G21A U28C U34A U43C yielded a self-cleavage of 0.03.
In the case of U20G G30C U34C C42U, the self-cleavage is reported as 0.02.
For A6G C10A G19U C23A G29U, the self-cleavage was 0.02.
For G27U A41G C46A, the self-cleavage was 0.32.
With G5U C10A G40A the self-cleavage was 0.02.
C3G G30A G40C G44A showed a self-cleavage of 0.14.
For G7C A12U C31U C46A, the self-cleavage was 0.09.
C10G G19A G29C U38G G44C showed a self-cleavage of 0.02.
Work on G1A G19C C23G G27U U34G G44U yielded a self-cleavage of 0.04.
Work on U9G G22C A41C yielded a self-cleavage of 0.03.
In the case of G7C C18A G22C A26G G35A, the self-cleavage is reported as 0.03.
For C18U C31G G36U C46G, the self-cleavage was 0.01.
C8A G40U C42A showed a self-cleavage of 0.39.
A6U C23A U28C A39C A41C gave a self-cleavage of 0.16.
Variant G19A G33U G40C has a self-cleavage of 0.24.
Work on A11C G22C G27A G30U G40C yielded a self-cleavage of 0.
C23U G36U G40C showed a self-cleavage of 0.06.
Work on G7C U9C A25G C42A yielded a self-cleavage of 0.01.
Variant U20G G29U C31G U32C G33A has a self-cleavage of 0.05.
For A11C G36C C42G, the self-cleavage was 0.
In the case of A6C U9C C10U C18G U20G G22C, the self-cleavage is reported as 0.03.
In the case of C13U G17C G40A A41U, the self-cleavage is reported as 0.02.
In the case of G5A C10U C15A C18U G36A, the self-cleavage is reported as 0.08.
Variant A14C G22A C23U A24G has a self-cleavage of 0.12.
C31A G35C U43A gave a self-cleavage of 0.01.
With C10U G33U C46U the self-cleavage was 0.03.
For C3A C10A C37G C46G, the self-cleavage was 0.01.
In the case of A12U G29A A39U C45U, the self-cleavage is reported as 0.49.
G2U C13A C15G G40U gave a self-cleavage of 0.09.
For A24C A25C U43A C46G, the self-cleavage was 0.02.
With C15A A26C G40U the self-cleavage was 0.01.
Work on G2U A4G C10A G22A A39U G40A yielded a self-cleavage of 0.01.
For C10G G22U C42A, the self-cleavage was 0.02.
G2C C3U A4C G7A showed a self-cleavage of 1.5.
G1C G7A A12U A14G U20A A39C showed a self-cleavage of 0.01.
With G7C C13G G21U G29U the self-cleavage was 0.13.
G1C G2U C15U C18G G36A C37A showed a self-cleavage of 0.
C8G C13A A24C gave a self-cleavage of 0.09.
In the case of A14U A26C A41C, the self-cleavage is reported as 0.02.
For G19C U32A A39G, the self-cleavage was 0.07.
With C10U A11G C15A C18G G19U G35C the self-cleavage was 0.01.
With C3G G22C G40U C46G the self-cleavage was 0.13.
For G1C A14G G17U C23A G29U C42U, the self-cleavage was 0.
Variant G5A C15A A25U C45A C46A has a self-cleavage of 0.36.
Variant C10A A14G U32A C46A has a self-cleavage of 0.03.
A12U C15A A24G C46G gave a self-cleavage of 0.01.
Variant C15G C23U U38A has a self-cleavage of 0.38.
G7A G22U A41U gave a self-cleavage of 0.13.
G7A C10G G33U showed a self-cleavage of 0.03.
Variant A16C G21U U34A C37U A39G has a self-cleavage of 0.01.
Work on C3U C15G A41U U43A yielded a self-cleavage of 0.05.
G30A A41G U43A C45U showed a self-cleavage of 0.01.
For C31U A39C C46A, the self-cleavage was 0.16.
Work on G19C U20C G27A U34G C45G yielded a self-cleavage of 0.03.
In the case of G1C A6G G7A U20C G30C U43G, the self-cleavage is reported as 0.01.
